1 molecule from patent US20080038257A1 (AVEO PHARMACEUTICALS, published 2008) can be followed below.

Test [1] concerns the target T1, recombinant human HGF (R&D Systems, Catalog No. 294-HGN-025) (human, UniProt P14210 32-728). Nature of the test: cell-based or functional assay.
For test [2], the target named is T1, recombinant human HGF (R&D Systems, …). The test is described as follows: cell-based or functional assay. This is another data set of the same source.

T1 sequence (P14210 32-728 limits assumed): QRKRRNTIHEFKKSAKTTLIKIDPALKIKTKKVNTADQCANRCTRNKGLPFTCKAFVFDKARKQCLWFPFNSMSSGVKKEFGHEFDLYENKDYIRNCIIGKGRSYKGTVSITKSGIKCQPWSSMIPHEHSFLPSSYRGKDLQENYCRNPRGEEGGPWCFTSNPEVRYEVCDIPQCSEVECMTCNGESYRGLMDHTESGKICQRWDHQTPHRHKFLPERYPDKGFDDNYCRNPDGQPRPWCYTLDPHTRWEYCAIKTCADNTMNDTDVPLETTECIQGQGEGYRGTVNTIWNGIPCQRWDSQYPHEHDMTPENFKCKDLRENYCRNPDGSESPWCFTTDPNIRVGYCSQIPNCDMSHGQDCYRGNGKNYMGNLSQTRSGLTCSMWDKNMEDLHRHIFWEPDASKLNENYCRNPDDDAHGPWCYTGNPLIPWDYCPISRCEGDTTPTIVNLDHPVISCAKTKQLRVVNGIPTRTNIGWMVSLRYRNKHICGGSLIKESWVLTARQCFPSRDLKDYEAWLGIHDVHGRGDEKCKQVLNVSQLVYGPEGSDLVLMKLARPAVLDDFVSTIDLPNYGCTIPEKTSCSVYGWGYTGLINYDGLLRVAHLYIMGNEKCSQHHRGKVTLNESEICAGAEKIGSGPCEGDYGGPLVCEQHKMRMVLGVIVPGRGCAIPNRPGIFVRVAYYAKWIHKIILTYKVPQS

B1: sh2B8-12 (G1m(3)) = hu2B8 Hv5-51.1 + IgG1 constant G1m(3) allele 2 plus hu2B8 Kv3-15.1 + Kappa Km(3) allele 2 (antibody)
heavy: EVQLVQSGAEVKKPGESLKISCKGSGYSFTTYWMHWVRQMPGKGLEWMGEINPTNGHTNYNPSFQGQVTISADKSISTAYLQWSSLKASDTAMYYCARNYVGSIFDYWGQGTLVTVSSASTKGPSVFPLAPSSKSTSGGTAALGCLVKDYFPEPVTVSWNSGALTSGVHTFPAVLQSSGLYSLSSVVTVPSSSLGTQTYICNVNHKPSNTKVDKRV[human IgG1 Fc not printed]
light: EIVMTQSPATLSVSPGERATLSCKASENVVSYVSWYQQKPGQAPRLLIYGASNRNTGIPARFSGSGSGTEFTLTISSLQSEDFAVYYCGQSYNYPYTFGQGTKLEIKRTVAAPSVFIFPPSDEQLKSGTASVVCLLNNFYPREAKVQWKVDNALQSGNSQESVTEQDSKDSTYSLSSTLTLSKADYEKHKVYACEVTHQGLSSPVTKSFNRGEC
B1: in test [1], the “IC50 (nM), HGF stimulated BrdU incorporation in 4MBr-5 cells” value was 0.81 nM. Moreover, the “HGF-stimulated c-Met phosphorylation in PC-3 cells (assay of Example 9), Average of Two Trials” value in test [2] is 0.81 nM.
